According to PubChem BioAssay AID686971 (National Center for Advancing Translational Sciences (NCATS), 2013):
Screen size: about 360,000 compounds; about 7,500 (2.1%) were called active. Inconclusive means that the source gave no clear call. Such entries were picked first, then a sample of the others. Calls come from the whole dose curve; as a rule, active = well fitted cell-killing curve with a large enough effect; inconclusive = small, poorly fitted or top-dose-only effect, or effect the other way, or another doubt; inactive = no such curve, though single readings can be large or run the other way. No potency is given beside an inconclusive call; the fits are too rough.

Assay: qHTS for induction of synthetic lethality in tumor cells producing 2HG: qHTS for the HT-1080-IDH1KD cell line;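 for activity, negative = toxicity: 0% = DMSO wells and -100% = cell-free medium wells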
Conditions: HT-1080 IDH1 knockdown viability, ATP luminescence, 48 h; activity, negative = toxicity: at 46.1 µM (top of the series) unless noted
Method in brief: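 Cytotoxicity counter-line: IDH1KD HT-1080, 48 h, CellTiter-Glo. Curves classed by r2, magnitude and activity.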
Potency is the fitted concentration of half-maximal effect; tags give direction and shape of the fitted curve.

| SMILES | Potency | activity, negative = toxicity |
| --- | --- | --- |
| O=C(CSc1ccccc1)NNC(=O)c1ccccc1O | inconclusive [cytotoxic, single point] | – |
| COc1cc(NC(=O)c2cc(-c3cc(F)ccc3OC(C)C)n[nH]2)cc(OC)c1OC | inconclusive [cytotoxic, single point] | – |
| COc1ccc(CCn2c(SCC(=O)Nc3cc(C)on3)nc3ccsc3c2=O)cc1OC | inconclusive [cytotoxic, single point] | – |
| CCOC(=O)c1c(-c2ccccc2)oc2ccc(OCC(O)CNCCN(C)C)cc12 (centres undefined) | active: 13 µM | – |
| CSc1nc2ccc(NC(=O)c3ccccn3)cc2s1 | active: 11.6 µM | – |
| COc1ccccc1NS(=O)(=O)c1cc(C(=O)N2CCN(C(=O)c3ccco3)CC2)ccc1F | – | inactive: 0.864% |
| COc1ccc(-c2nc(N)ncc2-c2csc(C)n2)c(O)c1 | inconclusive [cytotoxic, single point] | – |
| CC1(C(=O)NS(=O)(=O)c2ccccc2Cl)CCN1C(=O)Cc1cc(F)ccc1F (centres undefined) | inconclusive [rising, single point] | – |
| CCC(C)Sc1ccc(-c2nc3cc(C)ccn3c2NC2CCCCC2)cc1 (centres undefined) | inconclusive [cytotoxic, single point] | – |
| CCc1ccc(O)c(N=Cc2ccccc2O)c1 | inconclusive [cytotoxic, single point] | – |
| CC(=O)CSc1nnc(-c2ccc(S(=O)(=O)N3CCC(C)CC3)cc2)o1 | – | inactive: 17.5% |
| NC(Cc1ccc(Cl)cc1)c1csc(Nc2ccc(C(F)(F)F)cn2)n1 (centres undefined) | inconclusive [cytotoxic, single point] | – |
| COc1ccc(NS(=O)(=O)c2ccc3c(c2)OCCO3)cc1OC | inconclusive [cytotoxic, partial curve] | – |
| CN(C)c1cc[n+](CC(=O)Nc2ccc(Oc3ccccc3)cc2)cc1 | inconclusive [cytotoxic, partial curve] | – |
| COc1cccc(-c2cc3nc(-c4ccccc4)cc(=O)n3[nH]2)c1 | active: 1.3 µM | – |
| O=S(=O)(c1ccc(NC(=S)Nc2ccc(OC(F)F)cc2)cc1)N1CCOCC1 | – | inactive: -2.97% |
| CC(C)c1c(C(=O)N/N=C/c2ccoc2)nnn1-c1nonc1N | – | inactive: 0% |
| Cc1ccc(NC(=O)c2cc3c(s2)CCCC3)cc1S(=O)(=O)Nc1ccccc1Cl | inconclusive [cytotoxic, single point] | – |
| CN(C)CCOc1ccc(-c2c(-c3ccccc3)sc3ccccc23)cc1 | inconclusive [cytotoxic, single point] | – |
| O=C1N/C(=C\c2ccc(N3CCOCC3)c(F)c2)C(=O)N1Cc1ccccc1 | active: 18.4 µM | – |
| COc1ccc(C(=O)NCC(=O)N/N=C/C(C)=C/c2ccco2)cc1OC | inconclusive [cytotoxic, partial curve, poor fit] | – |
| CCN(CC)CC(=O)Nc1ccc2c(c1)N(C(=O)CN(CC)CC)c1ccccc1CC2 | inconclusive [cytotoxic, full curve] | – |
| Cc1cc(Nc2ccc([N+](=O)[O-])cc2)c2ccccc2n1 | inconclusive [cytotoxic, single point] | – |

| SMILES | Potency | activity, negative = toxicity |
| --- | --- | --- |
| O=C(OC1CC2CC1[C@H]1CCCCN1C2=O)N1CCCCC1 (some centres undefined) | – | inactive: 0.709% |
| N#C/C(=C\c1ccc(N2CCOCC2)o1)c1nc2ccccc2[nH]1 | inconclusive [cytotoxic, single point] | – |
| CCC(C)(C)C1CCC2(CC1)NC(=O)N(CC(=O)NCCCc1ccccc1)C2=O (centres undefined) | inconclusive [cytotoxic, single point] | – |
| O=c1[nH]c(C2CCN(S(=O)(=O)c3ccccc3C(F)(F)F)CC2)nc2c1nnn2Cc1cccc(F)c1 | active: 16.4 µM | – |
| O=CNc1ccc2c(c1)Cc1cc([N+](=O)[O-])ccc1-2 | active: 5.17 µM | – |
| COc1ccc(CN=Cc2[nH]c3ccc(Br)c(Cl)c3c2O)cc1 | active: 10 µM | – |
| Cc1c(C(=O)NCc2ccc(C(C)C)cc2)sc(=O)n1Cc1cccc(F)c1 | inconclusive [cytotoxic, single point] | – |
| FC(F)(F)c1ccccc1Cc1c(C2CCCCC2)nc2ccc(Cl)cn12 | inconclusive [cytotoxic, single point] | – |
| Cc1ccc(-c2nn(CC(=O)NCc3cc(-c4nn(C)c(=O)c5ccccc45)ccc3C)c(=O)c3ccccc23)cc1 | inconclusive [cytotoxic, single point] | – |
| CC(=O)c1cccc(NC(=O)c2sc(Cl)nc2C)c1 | – | inactive: 7.03% |
| CSCCC(NC(=O)c1ccc(C(C)(C)C)cc1)C(=O)O (centres undefined) | – | inactive: 1.25% |
| CC(C)(C)c1ccc(C2(C)NC(=O)N(CC(=O)NC3CCS(=O)(=O)C3)C2=O)cc1 (centres undefined) | – | inactive: -5.9% |
| CC(C)OC(=O)c1nnn(-c2nonc2N)c1CN1CCCCCC1 | inconclusive [rising, single point] | – |
| Cc1nc2ccccc2n1Cc1ccc(Cl)cc1 | inconclusive [cytotoxic, partial curve, poor fit] | – |
| Cn1c(-c2cccc(F)c2)nc2c1c(=O)[nH]c(=O)n2Cc1ccccc1 | inconclusive [cytotoxic, single point] | – |
| C[C@]12C(=O)N(c3ccc(C(F)(F)F)cc3)C(=O)N1[C@@H]1c3ccccc3OC[C@@H]1[C@H]2c1ccccc1 | – | inactive: 0% |
| Cn1c(=O)n(C)c2cc([N+](=O)[O-])c(N3CCN(S(C)(=O)=O)CC3)cc21 | – | inactive: 1.67% |
| Cc1ccc(CN2CCC(Oc3cccc(C(=O)N(C)CCN(C)C)c3)CC2)cc1C | active: 20.6 µM | – |
| COc1ccc(N2CCN(C(=O)Cc3ncc(C(F)(F)F)cc3Cl)CC2)cc1 | – | inactive: 0.494% |
| Cc1ccc(CNC(=O)Cn2nnc(C(=O)Nc3cc(C)ccc3C)c2N)cc1 | inconclusive [cytotoxic, partial curve] | – |
| OCCCNc1cc(-c2ccnc(Nc3cccc(Cl)c3)n2)ccn1 | inconclusive [cytotoxic, partial curve, poor fit] | – |
| O=S(=O)(NC1CC(NS(=O)(=O)OCC(Cl)(Cl)Cl)C2CCCCC12)OCC(Cl)(Cl)Cl (centres undefined) | inconclusive [cytotoxic, single point] | – |
| O=C(NNc1c2ccccc2nc2ccccc12)c1cc2ccccc2cc1O | inconclusive [cytotoxic, partial curve] | – |

| SMILES | Potency | activity, negative = toxicity |
| --- | --- | --- |
| O=Cc1cc(Cl)ccc1OCCN1CCC(Cc2ccccc2)CC1 | inconclusive [cytotoxic, single point] | – |
| Cc1cccc(N(Cc2cc(=O)[nH]c3ccccc23)C(=O)CCl)c1 | inconclusive [cytotoxic, single point] | – |
| Nc1c(C(=O)N/N=C/c2ccc(F)cc2)oc2nc(-c3ccccc3)cc(-c3ccco3)c12 | active: 20.6 µM | – |
| COc1c[nH]n(C2CCCCC2)c(=O)c1=O | inconclusive [cytotoxic, single point] | – |
| O=C1N[C@@H](Cc2c[nH]c3ccccc23)COC(=O)[C@H](Cc2ccc(F)cc2)C/C=C\C[C@H]1CC(=O)N(CCO)Cc1ccccc1 | inconclusive [cytotoxic, single point] | – |
| COc1ccc(-c2ccc(C(=O)Nc3cccc(NS(C)(=O)=O)c3)c3occc23)c(C)c1 | inconclusive [cytotoxic, single point] | – |
| CS(=O)(=O)N(Cc1ccccc1)c1ccccc1C(=O)N1CCN(c2ccccc2)CC1 | – | inactive: -13.4% |
| COc1cc(C)c(C(C)C)cc1S(=O)(=O)n1cnc(C)c1 | active: 9.2 µM | – |
| COc1ccc(CCNC(=O)C(=O)NCc2ccccc2)cc1OC | active: 20.6 µM | – |
| CCCNC(=O)N1CCN(S(C)(=O)=O)CC1 | inconclusive [rising, single point] | – |
| CCN(CC)CCNC(=O)c1cc2c(=O)n(C)c3ccccc3c2s1 | inconclusive [cytotoxic, partial curve] | – |
| C=CCN1C(=O)C(CC(=O)Nc2ccccc2)SC1=Nc1ccc(S(N)(=O)=O)cc1 (centres undefined) | inconclusive [cytotoxic, single point] | – |
| CC(NCC(O)COCCC12CC3CC(CC(C3)C1)C2)c1ccccc1 (centres undefined) | inconclusive [cytotoxic, single point] | – |
| Cc1cccc(NC(=S)N2CCC(c3nc4ccccc4o3)CC2)c1 | – | inactive: 7.78% |
| COc1ccc(-c2nc3ccccc3c(=O)[nH]2)cc1 | inconclusive [cytotoxic, single point] | – |
| Cc1cccc(C(=O)NC(=S)NNC(=O)Cc2ccccc2)c1 | inconclusive [cytotoxic, single point] | – |
| Cc1c(C#N)c(O)n(C)c(=O)c1N=Nc1ccc(S(N)(=O)=O)cc1 | – | inactive: -0.789% |
| CCc1ccc(OCCNC(=O)c2ccccc2SCc2ccccc2)cc1 | inconclusive [cytotoxic, single point] | – |
| CCOC(=O)c1sc(N(Cc2ccccc2)C(=O)CCl)nc1C | active: 18.4 µM | – |
| Clc1cccc(Nc2nc(-c3cccnc3)cs2)c1 | inconclusive [cytotoxic, single point] | – |
| CCOC(=O)C1(CCOc2ccccc2)CCN(Cc2cccc(OC)c2OC)CC1 | inconclusive [cytotoxic, partial curve] | – |
| CCN1CCCC1CNC(=O)c1ccc2c(c1)NC(=O)/C(=C\c1ccccc1F)S2 (centres undefined) | inconclusive [cytotoxic, single point] | – |
| O=C1NC(c2ccccc2)N=C2Oc3ccccc3C=C12 (centres undefined) | inconclusive [cytotoxic, partial curve] | – |
